# The supplement of paper PMC4604168 (melanoma cell lines)
# This is one part of the list. Many values rest on one well or one pass, so single values are uncertain.
# Columns and labels:
# Experiment in all cases: cell count relative to DMSO control; melanoma cells; higher = more viable cells
# Details in all cases: library dose: low library concentration; 72 h
# MZ2-MEL = tested on: MZ2-MEL
# MeWo = tested on: MeWo
# RPMI7951 = tested on: RPMI7951
# RVH-421 = tested on: RVH-421
# SkMel28 = tested on: SkMel28
# SkMel2 = tested on: SkMel2
# SkMel30 = tested on: SkMel30
# UACC62 = tested on: UACC62
# WM115 = tested on: WM115
# WM1716 = tested on: WM1716
# WM1745 = tested on: WM1745
# WM3526 = tested on: WM3526
# WM3619 = tested on: WM3619
# WM451Lu = tested on: WM451Lu
# 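Note: cell number obtained by counting DAPI-stained nuclei in high-throughput microscope images with image analysis software, screen run in 1,536-well plates.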
Structure (SMILES),cell count (MZ2-MEL) [%],cell count (MeWo) [%],cell count (RPMI7951) [%],cell count (RVH-421) [%],cell count (SkMel28) [%],cell count (SkMel2) [%],cell count (SkMel30) [%],cell count (UACC62) [%],cell count (WM115) [%],cell count (WM1716) [%],cell count (WM1745) [%],cell count (WM3526) [%],cell count (WM3619) [%],cell count (WM451Lu) [%]
"CCN(CC)CCNC(=O)c1c(C)[nH]c(/C=C2\C(=O)Nc3ccc(F)cc32)c1C [sunitinib] + Clc1ccc(Nc2nnc(Cc3ccncc3)c3ccccc23)cc1 [vatalanib] (first compound 0.4 µM, partner dose 2 µM)",97,66.9,106,139,82.4,103,53.3,88.5,90.7,131,49.5,86.9,94.7,83.6
"C[C@]1(O)C[C@@H](c2nc(-c3ccc4ccc(-c5ccccc5)nc4c3)c3c(N)nccn32)C1 + CN1CCN(c2ccc3nc(-c4c(N)c5c(F)cccc5[nH]c4=O)[nH]c3c2)CC1 [Dovitinib] (first compound 0.4 µM, partner dose 0.1 µM)",86.1,88.7,102,107,81.9,95.4,71.6,87.5,99,104,85.7,90.7,89,86.1
"COc1cc([C@@H]2c3cc4c(cc3[C@@H](O[C@@H]3O[C@@H]5CO[C@@H](C)O[C@H]5[C@H](O)[C@H]3O)[C@H]3COC(=O)[C@H]23)OCO4)cc(OC)c1O [etoposide] + CCN(CC)CCNC(=O)c1c(C)[nH]c(/C=C2\C(=O)Nc3ccc(F)cc32)c1C [sunitinib] (first compound 0.02 µM, partner dose 0.4 µM)",94.8,93,90.3,114,97.3,96.7,104,92.2,108,127,96.6,97.3,107,82.4
"COc1cc([C@@H]2c3cc4c(cc3[C@@H](O[C@@H]3O[C@@H]5CO[C@@H](C)O[C@H]5[C@H](O)[C@H]3O)[C@H]3COC(=O)[C@H]23)OCO4)cc(OC)c1O [etoposide] + Nc1cccc2c1CN(C1CCC(=O)NC1=O)C2=O [lenalidomide] (first compound 0.02 µM, partner dose 1 µM)",87.9,95,87.9,78.3,86.9,90.3,97.6,90.9,93.4,86.7,80.9,82.8,67.2,89.4
"COc1cc([C@@H]2c3cc4c(cc3[C@@H](O[C@@H]3O[C@@H]5CO[C@@H](C)O[C@H]5[C@H](O)[C@H]3O)[C@H]3COC(=O)[C@H]23)OCO4)cc(OC)c1O [etoposide] + CC(=O)O[C@@]12CO[C@@H]1C[C@H](O)[C@@]1(C)C(=O)[C@H](O)C3=C(C)[C@@H](OC(=O)[C@H](O)[C@@H](NC(=O)OC(C)(C)C)c4ccccc4)C[C@@](O)([C@@H](OC(=O)c4ccccc4)[C@H]21)C3(C)C [Docetaxel] (first compound 0.02 µM, partner dose 0.0001 µM)",56.7,59.2,56.4,51.2,54.8,49.4,41,45.2,69.9,45.4,86.5,29.8,82.1,58.4
"Cn1cnc2c(F)c(Nc3ccc(Br)cc3Cl)c(C(=O)NOCCO)cc21 [selumetinib] + CN1CCN(c2ccc3nc(-c4c(N)c5c(F)cccc5[nH]c4=O)[nH]c3c2)CC1 [Dovitinib] (first compound 0.015 µM, partner dose 0.1 µM)",70.4,79.7,107,85.7,104,67.1,42.6,71.8,91,118,84.6,69.8,94.5,97.9
"COc1cc([C@@H]2c3cc4c(cc3[C@@H](O[C@@H]3O[C@@H]5CO[C@@H](C)O[C@H]5[C@H](O)[C@H]3O)[C@H]3COC(=O)[C@H]23)OCO4)cc(OC)c1O [etoposide] + Cn1cnc2c(F)c(Nc3ccc(Br)cc3Cl)c(C(=O)NOCCO)cc21 [selumetinib] (first compound 0.02 µM, partner dose 0.015 µM)",86.3,87.6,105,79.4,87.9,79.9,77.4,69.3,90,106,85.1,88.6,81,99.1
"CCN(CC)CCNC(=O)c1c(C)[nH]c(/C=C2\C(=O)Nc3ccc(F)cc32)c1C [sunitinib] + C=C(c1ccc(C(=O)O)cc1)c1cc2c(cc1C)C(C)(C)CCC2(C)C [Bexarotene] (first compound 0.4 µM, partner dose 2 µM)",117,74.2,106,149,101,107,90.3,93.5,121,132,81.6,81.2,136,71.1
"C[C@]1(O)C[C@@H](c2nc(-c3ccc4ccc(-c5ccccc5)nc4c3)c3c(N)nccn32)C1 + Nc1cccc2c1CN(C1CCC(=O)NC1=O)C2=O [lenalidomide] (first compound 0.4 µM, partner dose 1 µM)",95.2,98.1,86.6,85,94.3,81.5,96.4,102,106,80.6,80,93.2,87.4,103
"Cn1cnc2c(F)c(Nc3ccc(Br)cc3Cl)c(C(=O)NOCCO)cc21 [selumetinib] + CCN(CC)CCNC(=O)c1c(C)[nH]c(/C=C2\C(=O)Nc3ccc(F)cc32)c1C [sunitinib] (first compound 0.015 µM, partner dose 0.4 µM)",99.9,83.1,92.5,104,62.7,80.7,63.5,69.2,83.1,131,76.4,57.3,95.5,113
"C[C@]1(O)C[C@@H](c2nc(-c3ccc4ccc(-c5ccccc5)nc4c3)c3c(N)nccn32)C1 + O=C(O)[C@@H]1[O][Sb](=[O])([O][Sb]2(=[O])[O][C@H]([C@H](O)CO)[C@H](O)[C@H](C(=O)O)[O]2)[O][C@H]([C@H](O)CO)[C@@H]1O [stibogluconate] (first compound 0.4 µM, partner dose 2 µM)",90.8,99.8,93.2,84,96.5,84.5,89.5,103,133,94.7,74.2,81.4,85,90.6
"COc1cc([C@@H]2c3cc4c(cc3[C@@H](O[C@@H]3O[C@@H]5CO[C@@H](C)O[C@H]5[C@H](O)[C@H]3O)[C@H]3COC(=O)[C@H]23)OCO4)cc(OC)c1O [etoposide] + Nc1ncn([C@H]2C[C@H](O)[C@@H](CO)O2)c(=O)n1 [decitabine] (first compound 0.02 µM, partner dose 0.1 µM)",84.5,100,95.8,83.9,102,87.8,109,75.2,82.5,84.7,112,101,109,94.8
"Cn1cnc2c(F)c(Nc3ccc(Br)cc3Cl)c(C(=O)NOCCO)cc21 [selumetinib] + C[C@]1(O)C[C@@H](c2nc(-c3ccc4ccc(-c5ccccc5)nc4c3)c3c(N)nccn32)C1 [OSI906] (first compound 0.015 µM, partner dose 0.4 µM)",77.8,77.3,92.8,71.5,85.8,51.6,44.7,69.3,102,106,76.6,58.6,81.1,86.4
"C[C@]1(O)C[C@@H](c2nc(-c3ccc4ccc(-c5ccccc5)nc4c3)c3c(N)nccn32)C1 + CNC(=O)c1cc(Oc2ccc(NC(=O)Nc3ccc(Cl)c(C(F)(F)F)c3)cc2)ccn1 [sorafenib] (first compound 0.4 µM, partner dose 0.4 µM)",82.8,88.8,86.3,95.6,106,85.9,97.8,79.8,103,107,70.8,94.1,91,97.8
"COc1cc([C@@H]2c3cc4c(cc3[C@@H](O[C@@H]3O[C@@H]5CO[C@@H](C)O[C@H]5[C@H](O)[C@H]3O)[C@H]3COC(=O)[C@H]23)OCO4)cc(OC)c1O [etoposide] + COc1ccc(Cl)c(Nc2nc3ccccc3nc2NS(=O)(=O)c2cccc(NC(=O)C(C)(C)N)c2)c1 [XL147] (first compound 0.02 µM, partner dose 0.8 µM)",88.1,83.9,106,88.6,101,91.4,85.7,81.6,106,102,85.6,121,95.1,102
"Cn1cnc2c(F)c(Nc3ccc(Br)cc3Cl)c(C(=O)NOCCO)cc21 [selumetinib] + CCCS(=O)(=O)Nc1ccc(F)c(C(=O)c2c[nH]c3ncc(Cl)cc23)c1F [PLX4720] (first compound 0.015 µM, partner dose 0.08 µM)",104,92.7,110,87.6,72.5,86.9,82.6,67.8,96.4,82,95.6,60.4,97.2,142
